# Results: the BET-seq Pho4 binding data (Le et al. 2018)
# This is one part of the list. The energies were worked out here from pooled read counts, against the library average; single values are noisy.
# Target: T1, Pho4 (S. cerevisiae) (UniProt P07270)
# T1 sequence: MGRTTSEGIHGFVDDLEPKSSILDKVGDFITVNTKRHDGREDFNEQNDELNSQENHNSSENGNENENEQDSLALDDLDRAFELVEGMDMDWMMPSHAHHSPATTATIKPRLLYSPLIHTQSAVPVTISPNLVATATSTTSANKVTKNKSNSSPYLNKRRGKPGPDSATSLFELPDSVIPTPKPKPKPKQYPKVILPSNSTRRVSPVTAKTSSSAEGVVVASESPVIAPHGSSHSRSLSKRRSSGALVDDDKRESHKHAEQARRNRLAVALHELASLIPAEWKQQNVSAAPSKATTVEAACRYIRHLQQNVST
# Assay: relative binding free energy (BET-seq); higher = weaker binding
# Conditions: reference: library average
row,Sequence,relative binding free energy
1,CGAGTCACGTGTGCGT,-0.02 kcal/mol
2,GAGAGCACGTGAAGTG,0.21 kcal/mol
3,TCTGTCACGTGTGTCT,0.05 kcal/mol
4,TTATTCACGTGGTGGG,0.2 kcal/mol
5,TTTCACACGTGGAAGT,0.23 kcal/mol
6,AGTATCACGTGTTCGT,-0.11 kcal/mol
7,AATGGCACGTGTTGAA,-0.11 kcal/mol
8,TTGTCCACGTGATTTT,0.23 kcal/mol
9,TACAGCACGTGCGGGT,0 kcal/mol
10,CGGTGCACGTGGCTCT,0 kcal/mol
11,CGTAACACGTGGGGCT,-0.18 kcal/mol
12,TTTGACACGTGAGTTC,0.16 kcal/mol
13,GTGTGCACGTGTCACG,-0.02 kcal/mol
14,TTTAGCACGTGATAGA,0.05 kcal/mol
15,TGGAGCACGTGTAGTA,-0.01 kcal/mol
16,TATAGCACGTGAGTCA,0.24 kcal/mol
17,TTGTACACGTGGGAGG,-0.1 kcal/mol
18,GGGTGCACGTGGTATT,0.04 kcal/mol
19,CTATGCACGTGCTGTG,-0.1 kcal/mol
20,TTATACACGTGTGCTT,0.15 kcal/mol
21,GGGCACACGTGTCCGG,0.26 kcal/mol
22,CTTCGCACGTGGTGGG,-0.19 kcal/mol
23,TTGGCCACGTGGAGCT,0.01 kcal/mol

row,Sequence,relative binding free energy
1,AACAGCACGTGAGTGT,0.12 kcal/mol
2,GGGGGCACGTGTCGGA,-0.06 kcal/mol
3,GTAATCACGTGTGGAG,0.21 kcal/mol
4,TTCTGCACGTGGTAGA,0.04 kcal/mol
5,TGGGACACGTGCGATG,0.11 kcal/mol
6,TGTTACACGTGGATGT,0.07 kcal/mol
7,TAAGGCACGTGTGGGC,0.01 kcal/mol
8,TGTAGCACGTGTGAAT,0.05 kcal/mol
9,TTCATCACGTGGTTGT,0.06 kcal/mol
10,AGGCTCACGTGAGTAG,0.23 kcal/mol
11,TTTAACACGTGGACGT,0.11 kcal/mol
12,TAGTGCACGTGAAAGG,0.23 kcal/mol
13,TCAAGCACGTGTTGAG,-0.04 kcal/mol
14,TGGCGCACGTGGGTAT,-0.24 kcal/mol
15,ATACGCACGTGGGTTT,-0.41 kcal/mol
16,GTTAGCACGTGTACGG,-0.01 kcal/mol
17,TTTCGCACGTGATGGT,0.15 kcal/mol
18,CGTTTCACGTGATGTA,0.27 kcal/mol
19,ATGGACACGTGCGATT,0.16 kcal/mol
20,GGTTTCACGTGTGGAG,0.35 kcal/mol
21,TCGAACACGTGTGTTG,0.09 kcal/mol
22,GTGTGCACGTGGCGTT,-0.08 kcal/mol
23,TTTTGCACGTGGTCCA,-0.03 kcal/mol

row,Sequence,relative binding free energy
1,TTTGCCACGTGATAGG,-0.1 kcal/mol
2,ATAGGCACGTGTGTTC,-0.07 kcal/mol
3,TAGTGCACGTGGCGCT,-0.07 kcal/mol
4,AAATGCACGTGTGTGG,0.04 kcal/mol
5,TGGAGCACGTGATATT,0.11 kcal/mol
6,TATGGCACGTGGTTTT,-0.16 kcal/mol
7,GGGCACACGTGGTGTG,-0.04 kcal/mol
8,TGGAGCACGTGCGTAA,-0.06 kcal/mol
9,TTTTTCACGTGGTCCT,0.23 kcal/mol
10,ATTCACACGTGTGGTA,0.1 kcal/mol
11,ATTCTCACGTGGTTAG,0.08 kcal/mol
12,GTCAACACGTGGGGGC,-0.08 kcal/mol
13,GCCGTCACGTGAGTGG,0.19 kcal/mol
14,AGGTCCACGTGTGGGG,0.09 kcal/mol
15,CGTGTCACGTGTGTCT,0.1 kcal/mol
16,GATCTCACGTGTGCGT,0.38 kcal/mol
17,GTTTCCACGTGTTGTT,0.23 kcal/mol
18,TGGGTCACGTGGGAAT,0.18 kcal/mol
19,TGAGGCACGTGGACTG,-0.12 kcal/mol
20,GGAATCACGTGTTTGT,0.2 kcal/mol
21,TGGAGCACGTGATAAT,0.07 kcal/mol
22,TGTCACACGTGGGTGG,0 kcal/mol
23,TACGTCACGTGTGTGG,0.03 kcal/mol

row,Sequence,relative binding free energy
1,CGGATCACGTGGCGGT,0.13 kcal/mol
2,TAGTACACGTGCTAGT,0.07 kcal/mol
3,GGACCCACGTGGGTGG,-0.38 kcal/mol
4,AGATTCACGTGTGCTT,0.43 kcal/mol
5,AAAAGCACGTGTAGTA,0.04 kcal/mol
6,ATCGTCACGTGGTGAT,-0.01 kcal/mol
7,GGGCTCACGTGTGTGA,0.22 kcal/mol
8,TCGGGCACGTGCAAGG,0.04 kcal/mol
9,GGATACACGTGGGGGG,-0.06 kcal/mol
10,TGCAACACGTGTGAGG,0.09 kcal/mol
11,TGGTGCACGTGATGTT,0.11 kcal/mol
12,TTTATCACGTGGGCAA,0.18 kcal/mol
13,TACGTCACGTGGGTTT,-0.06 kcal/mol
14,TGTTGCACGTGCAAGG,0.03 kcal/mol
15,TTAAGCACGTGTAATG,-0.02 kcal/mol
16,GGATTCACGTGAGGTT,0.49 kcal/mol
17,ATATTCACGTGCGTTG,0.21 kcal/mol
18,CGGGGCACGTGCGAAG,-0.1 kcal/mol
19,TATGACACGTGTATGT,0.04 kcal/mol
20,AGGCTCACGTGTTAGT,0.23 kcal/mol
21,GAGGTCACGTGTCGTT,0.36 kcal/mol
22,GTGGTCACGTGTTCGA,0.19 kcal/mol
23,ATGCGCACGTGGTGTG,-0.23 kcal/mol

row,Sequence,relative binding free energy
1,CGGTACACGTGTAAGG,0.02 kcal/mol
2,CGTTTCACGTGGGTGT,0.12 kcal/mol
3,GAAAGCACGTGGTTTA,-0.01 kcal/mol
4,GGTGGCACGTGCAGGC,-0.08 kcal/mol
5,TAGGGCACGTGACTTG,-0.08 kcal/mol
6,CGTGACACGTGGTTTT,0.03 kcal/mol
7,TTCTGCACGTGTTTAG,0.07 kcal/mol
8,AGTGGCACGTGCGGAA,-0.2 kcal/mol
9,TGAGTCACGTGTACAG,0.23 kcal/mol
10,GATTTCACGTGTGTTA,0.14 kcal/mol
11,TTATTCACGTGTCGTC,0.31 kcal/mol
12,ATCGGCACGTGGGTCG,-0.23 kcal/mol
13,AGAGGCACGTGGTATG,-0.22 kcal/mol
14,TGTGGCACGTGTAGTG,-0.07 kcal/mol
15,CTTTTCACGTGAAGGT,0.41 kcal/mol
16,TGTTTCACGTGAGTCG,0.11 kcal/mol
17,TGATTCACGTGAGAGG,0.55 kcal/mol
18,TGCCGCACGTGTGGGA,-0.04 kcal/mol
19,AGGGCCACGTGCGTGT,-0.2 kcal/mol
20,ATGTGCACGTGTGCCG,-0.03 kcal/mol
21,ATAGTCACGTGATTAT,0.15 kcal/mol
22,TTCCGCACGTGAGGTT,0.08 kcal/mol
23,TTAGACACGTGGATGG,0.03 kcal/mol
